Data reported in the supplement of paper PMC3334620.
Over roughly 33,000 sequences, “E-score (-0.5 to 0.5)” has its median near -0.056; the highest 2% begin near 0.38. This is one part of the list.

Biological target: Stb4 (UniProt P50104)
Assay: PBM E-score (8-mer binding enrichment) (E-score (-0.5 to 0.5)); higher = stronger / more preferred TF binding; most listed sequences are background and not binding sites
Conditions: protein concentration: 200 nM; construct: GST-DNA-binding domain
Protocol: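 Universal 'all 10-mer' protein binding microarrays (Agilent AMADID 015681) probed with GST-tagged S. cerevisiae TFs (full-length or DBD) made by in vitro transcription/translation (PURExpress), about 100-200 nM. Bound TF was detected with fluorescent anti-GST. Each ungapped 8-mer (which stands for itself and its reverse complement) is scored by the PBM enrichment score (E-score), a modified Wilcoxon-Mann-Whitney statistic from -0.5 to +0.5, computed with the Universal PBM Analysis Suite. Scale: above 0.35 generally sequence-specific binding.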

| Sequence | PBM E-score |
| --- | --- |
| CCCTACCC | 0.0628 |
| AATATTCG | 0.0398 |
| AGGCCTCG | 0.221 |
| AGATGACT | -0.0669 |
| GCAAACGC | 0.121 |
| ATCGTCCC | 0.0198 |
| GTTGCCGA | 0.458 |
| AAGCGTCG | -0.0902 |
| GACCGAGA | 0.339 |
| AACCTCGC | -0.123 |
| CCCTCCAG | -0.00501 |
| CCTACGCA | -0.105 |
| TAACTTGA | -0.244 |
| GCCATCAA | -0.383 |
| CGTCTTCC | 0.0828 |
| AGCCTACT | -0.287 |
| CTCCATTA | -0.148 |
| AAGGTGAT | -0.138 |
| CGTGCCAG | -0.186 |
| AGGCAGCA | -0.251 |
| ACCACAAA | 0.0353 |
| CCTTAGAC | -0.17 |
| AATATAAT | 0.00554 |
| CCGACGAC | 0.328 |
| AACGGATG | 0.304 |

| Sequence | PBM E-score |
| --- | --- |
| CGTCTACA | -0.11 |
| CTCTCATA | -0.16 |
| GTTCGGTA | 0.425 |
| TGGCCGAA | 0.251 |
| ACTTTGTG | -0.103 |
| GTTACATA | -0.0592 |
| GCCTGCAC | -0.139 |
| ACGCGGGA | 0.273 |
| ACCAAATA | -0.0432 |
| CGCCACGA | -0.0773 |
| AGTCGCTC | -0.202 |
| ATCTGAAC | -0.0451 |
| ACTTCTGG | -0.253 |
| CAGCATTC | -0.153 |
| CATGACAC | -0.119 |
| CGATGCTA | 0.0421 |
| CCCTAAGC | -0.18 |
| CAGGGTGA | -0.0321 |
| CGTGCGCA | -0.0108 |
| CCAACATA | 0.0764 |
| CAAGTCTG | -0.246 |
| AACTATCT | -0.0847 |
| GCAGACGC | -0.152 |
| AAGGGGTC | -0.176 |
| GAGGTACA | -0.00397 |

| Sequence | PBM E-score |
| --- | --- |
| AACTGAAT | -0.136 |
| GCCTCCCC | -0.137 |
| CTCGTCGA | -0.232 |
| CTATTCGC | -0.122 |
| GTAATCAA | -0.0759 |
| AGTCCTGC | -0.0324 |
| CTGAGCAC | -0.205 |
| CCCCCTGC | -0.213 |
| CGGCAAGC | 0.326 |
| CCGCACAG | 0.0446 |
| ATTCATAA | 0.0701 |
| CTCGTGCC | -0.0865 |
| AGGCAATG | -0.227 |
| CCCTGGCG | -0.122 |
| CTGCTGGA | -0.292 |
| CCATGACA | -0.245 |
| ACAAGCCA | -0.231 |
| CAGTATCG | 0.0558 |
| ATAAACTC | 0.105 |
| ACCTATTA | -0.0753 |
| CAACTTGG | -0.143 |
| AGGGTGAG | -0.239 |
| AGAGTACT | -0.224 |
| CGACATTC | -0.0162 |
| ATATCCTC | -0.03 |

| Sequence | PBM E-score |
| --- | --- |
| AGGGTGAC | 0.0346 |
| CTATATCC | 0.227 |
| GACCTTAA | -0.145 |
| CTCTGGCC | -0.0565 |
| ATGATACG | 0.0744 |
| GTGACCAA | -0.203 |
| GAAGTCCC | 0.028 |
| GACGGGAA | 0.208 |
| AGATTTCG | 0.15 |
| CATTTCTA | 0.0529 |
| AGAGTTGA | -0.0567 |
| GAACCCAC | 0.113 |
| TGTACCAA | -0.195 |
| ACCGGCCG | 0.281 |
| AATCAATT | 0.0361 |
| AGGCACTA | -0.165 |
| AGGATACC | 0.0351 |
| ATACGTCC | -0.00745 |
| AGCTAGCG | -0.069 |
| AGTTTAGA | 0.087 |
| CCTATAAG | -0.275 |
| AGGTGGAA | -0.0313 |
| ACAGATCC | 0.338 |
| ACAAGTCG | -0.0915 |
| AAACACGT | -0.0853 |

| Sequence | PBM E-score |
| --- | --- |
| ATTGGCTA | -0.0463 |
| GTAACGTA | -0.192 |
| CTTTATCC | 0.225 |
| CTCGGCAA | 0.458 |
| ACCGAAGA | 0.359 |
| CAAGCAAC | -0.12 |
| AATTCTAG | -0.094 |
| CTTGTTCA | -0.148 |
| CCGTACGG | 0.162 |
| AAAGTATA | -0.133 |
| ACAGTGGG | 0.0192 |
| ATAACGAA | -0.0854 |
| CAAGGTTA | -0.00332 |
| CAGACCAA | -0.144 |
| ACCTCCGC | 0.108 |
| CAAGCACA | -0.318 |
| AATAATTG | -0.0587 |
| AGCGACCG | 0.117 |
| AACGGCGG | 0.121 |
| CAACAGGG | -0.116 |
| GAATTAGC | 0.00945 |
| AGAAGTAC | -0.146 |
| AAAGTAAT | 0.137 |
| GAGATCAC | -0.0747 |
| TGCGCAAA | -0.119 |

| Sequence | PBM E-score |
| --- | --- |
| AACACACA | -0.0643 |
| TCACAGCA | -0.191 |
| GTCGTGAA | -0.19 |
| TGCCAGCA | -0.0908 |
| GCGGTACC | 0.235 |
| CCAGAAAA | -0.108 |
| CTAATGAC | -0.34 |
| CCGTGGTA | 0.0351 |
| AACGGCCC | 0.0486 |
| CATCATAA | -0.0845 |
| CCGATAGA | 0.249 |
| CAACAACG | -0.326 |
| CCTTTAGA | -0.232 |
| CAGTAAAA | -0.0182 |
| ACGGTATC | 0.0325 |
| ATCGTGAA | 0.0212 |
| TAAGAATA | -0.127 |
| ATGCGTCG | -0.0379 |
| ACAGAGTG | -0.233 |
| AGAATAAA | -0.194 |
| GTGCCTAA | -0.266 |
| AATGATAT | -0.134 |
| AGGGACAT | -0.0773 |
| GACGGCTA | 0.168 |
| GCAATAGC | 0.0437 |

| Sequence | PBM E-score |
| --- | --- |
| ATCAGTAA | -0.0124 |
| CGCAATGA | -0.17 |
| CTTCTTCA | -0.288 |
| GGTCGACC | 0.309 |
| CATGCCCG | 0.244 |
| GCAAAATA | 0.0575 |
| CTTACTGC | 0.00974 |
| GTTATCAA | -0.117 |
| GCGACGTA | -0.0957 |
| ACCGCGAA | 0.0995 |
| CATACCCC | 0.0861 |
| CCAATAAC | -0.0398 |
| CAAGCTTC | -0.104 |
| ACGGAACA | 0.326 |
| ACCGGCTG | 0.174 |
| ATGATGGA | 0.0187 |
| ATCGATCG | -0.146 |
| AATAGCTC | -0.159 |
| CGACACGC | 0.0369 |
| GGTCATAC | -0.00835 |
| GCCCCTCA | -0.00939 |
| AACGTGAA | -0.148 |
